Values marked as one replicate rest on one cluster of the flow cell; about a third of the high ones do not repeat.
What follows are sequences tested on ATP (assay: switch fluorescence ratio, 500 uM ATP over buffer (Cy3 cluster intensity, sum of 5 cycles each) (fold (ratio)); higher = stronger signal-on switching upon ATP binding; sequences stand for … in TCGTCGGCAGCGTCAGATGTGTATAAGAGACAGTTTTTTTTTTTTTTTTTTTTTTTTT…TC). Conditions: aptamer strand: ATP DNA aptamer (quencher-CACCTGGGGGAGTATTGCGGAGGAAGG + anchor), 100 nM annealed; ATP concentration: 500 uM; one replicate.
In short: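 Clusters carrying Cy3-labelled switching strands on a modified Illumina MiSeq flow-cell were annealed to 100 nM quencher-labelled ATP aptamer and imaged in selection buffer. They were imaged again after 15 min with 500 uM ATP at 22 °C, over five buffer/ATP cycles with NaOH stripping and re-annealing in between. For each cluster, the fluorescence ratio is the summed Cy3 intensity of the target cycles divided by that of the buffer cycles, averaged per switch-domain sequence. Clusters outside 100-1000 RFU were left out.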
For TCCCAGTTGA, the switch fluorescence ratio was 1.21.
TCCCCAGGAT showed a switch fluorescence ratio of 1.06.
Work on TCCCCAGGTG yielded a switch fluorescence ratio of 1.7.
For TCCCCCGAAG, the switch fluorescence ratio was 1.46.
In the case of TCCCCCGGGG, the switch fluorescence ratio is reported as 1.78.
In the case of TCCCCCTTTT, the switch fluorescence ratio is reported as 1.04.
Work on TCCCCGATAA yielded a switch fluorescence ratio of 1.64.
With TCCCGAAGCG the switch fluorescence ratio was 1.85.
TCCCGAGTAC gave a switch fluorescence ratio of 1.36.
With TCCCGATACT the switch fluorescence ratio was 3.55.
Sequence TCCCGCAGGG has a switch fluorescence ratio of 1.01.
Sequence TCCCGGATGT has a switch fluorescence ratio of 1.03.
Sequence TCCCGGCCCG has a switch fluorescence ratio of 0.965.
Work on TCCCGGGAAC yielded a switch fluorescence ratio of 1.01.
In the case of TCCCTGTCCA, the switch fluorescence ratio is reported as 1.13.
Sequence TCCCTTGATC has a switch fluorescence ratio of 1.06.
TCCGAACGTG showed a switch fluorescence ratio of 2.98.
In the case of TCCGAGCACT, the switch fluorescence ratio is reported as 5.01.
TCCGAGGGGC showed a switch fluorescence ratio of 1.29.
TCCGAGTAGC gave a switch fluorescence ratio of 1.06.
In the case of TCCGAGTCGT, the switch fluorescence ratio is reported as 1.13.
TCCGCATCCA showed a switch fluorescence ratio of 3.27.
With TCCGCCGGAG the switch fluorescence ratio was 1.47.
TCCGCGGCCT showed a switch fluorescence ratio of 1.46.
TCCGGGCGGT showed a switch fluorescence ratio of 1.08.
TCCGGGTGAG gave a switch fluorescence ratio of 1.21.
Work on TCCGGGTTCT yielded a switch fluorescence ratio of 1.03.
TCCGGTACTA was tested, and the switch fluorescence ratio was 1.2.
Sequence TCCGGTAGGT has a switch fluorescence ratio of 0.958.
For TCCGGTTAAA, the switch fluorescence ratio was 1.05.
With TCCGTAGATG the switch fluorescence ratio was 1.02.
Work on TCCGTATCAG yielded a switch fluorescence ratio of 0.978.
TCCGTCATAG gave a switch fluorescence ratio of 0.974.
TCCGTCCACC gave a switch fluorescence ratio of 1.17.
In the case of TCCGTGACAC, the switch fluorescence ratio is reported as 4.46.
Work on TCCGTTATTG yielded a switch fluorescence ratio of 1.07.
In the case of TCCGTTCGGT, the switch fluorescence ratio is reported as 1.02.
In the case of TCCGTTTATT, the switch fluorescence ratio is reported as 1.07.
For TCCGTTTCGA, the switch fluorescence ratio was 1.03.
TCCTAACCCT gave a switch fluorescence ratio of 1.08.
In the case of TCCTAATGGT, the switch fluorescence ratio is reported as 1.02.
For TCCTACTTT, the switch fluorescence ratio was 0.991.
In the case of TCCTAGTAAG, the switch fluorescence ratio is reported as 1.03.
TCCTAGTGGA was tested, and the switch fluorescence ratio was 0.946.
In the case of TCCTATCA, the switch fluorescence ratio is reported as 0.917.
TCCTATTGCA gave a switch fluorescence ratio of 1.27.
TCCTCACTTC showed a switch fluorescence ratio of 1.54.
For TCCTCGGCCA, the switch fluorescence ratio was 1.09.
TCCTCTCGG showed a switch fluorescence ratio of 0.975.
TCCTCTTGGT showed a switch fluorescence ratio of 1.
TCCTGAGTGG was tested, and the switch fluorescence ratio was 0.952.
With TCCTGCATTG the switch fluorescence ratio was 1.06.
For TCCTGCGACT, the switch fluorescence ratio was 1.23.
TCCTGCGGAA gave a switch fluorescence ratio of 3.58.
Sequence TCCTGGATGA has a switch fluorescence ratio of 1.01.
Sequence TCCTGGGGAA has a switch fluorescence ratio of 1.15.
TCCTGTCGAT gave a switch fluorescence ratio of 1.04.
For TCCTGTCTTG, the switch fluorescence ratio was 0.981.
TCCTTCTTGG was tested, and the switch fluorescence ratio was 1.56.
In the case of TCGAAAACAT, the switch fluorescence ratio is reported as 1.09.
Work on TCGAAAAGGT yielded a switch fluorescence ratio of 0.987.
Sequence TCGAACAGCT has a switch fluorescence ratio of 0.992.
For TCGAACGTCT, the switch fluorescence ratio was 1.17.
Work on TCGAAGAGGT yielded a switch fluorescence ratio of 0.952.
TCGAAGATC showed a switch fluorescence ratio of 1.01.
TCGAAGGTCG gave a switch fluorescence ratio of 0.953.
TCGAATTGAG showed a switch fluorescence ratio of 0.991.
For TCGACCTTAG, the switch fluorescence ratio was 1.01.
TCGACGATTA showed a switch fluorescence ratio of 1.14.
TCGACGGGGT gave a switch fluorescence ratio of 1.14.
For TCGACTTTCG, the switch fluorescence ratio was 0.986.
For TCGAGAATCA, the switch fluorescence ratio was 0.982.
TCGAGATAT was tested, and the switch fluorescence ratio was 1.04.
Work on TCGAGCGACC yielded a switch fluorescence ratio of 1.16.
TCGAGGAGCT showed a switch fluorescence ratio of 1.06.
Sequence TCGAGGCGTT has a switch fluorescence ratio of 1.04.
With TCGAGGGATT the switch fluorescence ratio was 0.987.
TCGAGGGGCA gave a switch fluorescence ratio of 1.01.
In the case of TCGAGGTCAC, the switch fluorescence ratio is reported as 0.964.
TCGAGGTTT showed a switch fluorescence ratio of 0.958.
TCGAGTCGCA was tested, and the switch fluorescence ratio was 1.06.
With TCGAGTGGGA the switch fluorescence ratio was 1.02.
TCGAGTTGAC showed a switch fluorescence ratio of 1.
In the case of TCGATAATCT, the switch fluorescence ratio is reported as 0.983.
TCGATATAAC showed a switch fluorescence ratio of 1.01.

From the supplement of paper PMC10126150
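Also: ATP exposure 15 min at 22 °C before imaging.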
